From PMC6919601, “Identification of Plasmodium dipeptidyl aminopeptidase allosteric inhibitors by high throughput screening” (PLoS ONE, 2019)
About 230 (0.21%) of roughly 110,000 compounds showed an effect of 50% or more. The list shows a part of the results.

The molecules below were run against DPAP1 (Plasmodium falciparum, UniProt Q8IIJ9) (assay: primary screen, percent inhibition; read by cleavage of a fluorogenic dipeptide substrate; higher = more effect of the substance).
Parameters: species or system P. falciparum D10 trophozoite lysates; single well
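Note: 30 min substrate incubation versus DMSO and 10 µM JCP410 controls.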

Sequence of DPAP1 (Q8IIJ9 whole entry, looked up): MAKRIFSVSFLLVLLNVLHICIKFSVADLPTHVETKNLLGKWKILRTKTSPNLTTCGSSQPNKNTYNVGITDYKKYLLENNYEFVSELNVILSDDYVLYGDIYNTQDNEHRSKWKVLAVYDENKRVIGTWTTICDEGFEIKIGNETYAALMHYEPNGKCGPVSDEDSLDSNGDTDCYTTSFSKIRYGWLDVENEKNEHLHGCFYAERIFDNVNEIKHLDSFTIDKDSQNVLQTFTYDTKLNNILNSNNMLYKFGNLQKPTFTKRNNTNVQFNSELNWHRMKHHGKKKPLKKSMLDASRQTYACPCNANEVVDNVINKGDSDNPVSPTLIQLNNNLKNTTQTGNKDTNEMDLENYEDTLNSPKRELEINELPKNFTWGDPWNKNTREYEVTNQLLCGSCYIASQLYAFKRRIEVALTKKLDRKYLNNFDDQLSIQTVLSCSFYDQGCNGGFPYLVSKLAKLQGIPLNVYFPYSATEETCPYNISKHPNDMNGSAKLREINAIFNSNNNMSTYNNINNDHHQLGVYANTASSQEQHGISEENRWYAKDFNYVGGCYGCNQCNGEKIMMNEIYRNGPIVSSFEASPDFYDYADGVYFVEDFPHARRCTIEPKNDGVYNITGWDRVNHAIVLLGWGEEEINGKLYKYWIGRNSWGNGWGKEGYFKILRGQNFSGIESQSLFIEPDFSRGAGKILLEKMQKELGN

Row | SMILES | % Inhibition @ 10 uM
1 | Cc1cc(C)n(CCc2nc3c4ccccc4nc(SCC(=O)NC4CCCCC4)n3n2)n1 | 1.91%
2 | O=C(NC1(C(F)(F)F)C(=O)Nc2c1c(=O)[nH]c(=O)n2Cc1ccco1)c1ccccc1F (stereo not drawn) | -2.98%
3 | COc1ccc(C(=O)Nc2ccc(C)c(Cl)c2)cc1 | -3.44%
4 | O=C(Nc1ccccc1Cl)NS(=O)(=O)c1ccccc1Cl | -0.999%
5 | CCOC(=O)N1CCC(N2CC(C)OC(C)C2)CC1 (stereo not drawn) | -1.5%
6 | CC(C)(c1ccc(C(=O)O)s1)c1ccc(C(=O)O)s1 | 2.33%
7 | O=C(Nc1ccc(C23CC4CC(CC(C4)C2)C3)cc1)c1ccc(S(=O)(=O)N2CCOCC2)cc1 | 1.57%
8 | CCOc1cc(-c2nc3ccc4ccccc4c3c3c2CCCC3)ccc1O | -0.436%
9 | COc1ccc(CCNS(=O)(=O)c2cc(-c3onc(C)c3C)ccc2C)cc1OC | -5.28%
10 | COc1cc(N)ccc1Cc1ccc(N)cc1OC | -0.712%
11 | O=C1CC(N2CCN(c3ccc(Cl)cc3)CC2)C(=O)N1c1ccc(F)cc1 (stereo not drawn) | 2.92%
12 | O=C(Nc1noc2c1COc1ccccc1-2)N1CCC(Cc2ccccc2)CC1 | 0.0281%
13 | Cc1nn(-c2cccc(Cl)c2)c2c1C(c1ccc(F)cc1)C(C#N)=C(N)O2 (stereo not drawn) | -2.64%
14 | CC(Sc1nc2ccccc2o1)C(=O)O (stereo not drawn) | 1.25%
15 | COc1cc(CNCc2ccccc2Cl)ccc1OCC(N)=O | -5.15%
16 | CC1(C)CC2CC(C)(CN2C(=O)c2cc(-c3ccco3)on2)C1 (stereo not drawn) | -5.09%
17 | CCC(C)NC(=O)C1CCN(S(=O)(=O)c2cccc3nonc23)CC1 (stereo not drawn) | 7.35%
18 | CCc1ccc2oc(-c3ccccc3)c/c(=N\CCO)c2c1 | 0.561%
19 | Cc1ccc(S(=O)(=O)NCC2(c3ccccc3)CCOCC2)cc1 | -0.386%
20 | CCOCCCNC(=O)Cn1nc(CC)n2c(cc3occc32)c1=O | -3.79%
21 | CCOc1ccc2nc(C3C(=O)c4ccccc4C3=O)cc(O)c2c1 | 1.74%
22 | CC1(C)Cc2c(sc(NC(=O)C(C)(C)C)c2C#N)C(C)(C)N1 | -2.68%
23 | CC(=O)c1cc2c(cc1NS(=O)(=O)c1ccc(Cl)cc1)OCO2 | -3.92%
24 | CCCCn1cnc2cc(NCc3ccccn3)ccc21 | 0.843%
25 | Cc1ccccc1NC(=O)CSc1nc(C)c2c(n1)CCCC2 | -1.63%
26 | Cc1ccc(NC(=O)CC2(CC(=O)N(C)C)CCCC2)cc1 | 2.43%

Row | SMILES | % Inhibition @ 10 uM
27 | Cc1cccc(CNC(=O)C(C)n2nc(C)c3c(C)n(-c4ccccc4)nc3c2=O)c1 (stereo not drawn) | -6.33%
28 | CC(=O)c1ccc(N2CCN(Cc3ccc(C)o3)CC2)cc1 | -4.75%
29 | O=C(Cc1ccccc1)Nc1nnc(S(=O)(=O)N2CCCC2)s1 | -3.51%
30 | O=C(O)C1Cc2c([nH]c3ccccc23)C(c2ccc(Cl)cc2)N1 (stereo not drawn) | 1.29%
31 | COC(=O)c1sccc1N(Cc1ccc(C)cc1)S(C)(=O)=O | 1.68%
32 | COc1cc(OC)c(OC)cc1CNCCSc1nnnn1C | -1.71%
33 | COc1cccc(OC)c1C(=O)Nc1ccccc1 | -1.98%
34 | O=S(=O)(c1ccc(F)cc1)N1CCC(c2nc(O)c3nnn(Cc4cccc(F)c4)c3n2)CC1 | 1.12%
35 | O=C1N2CN(CCO)CN3C(=O)N4CN(CCO)CN1C4C23 (stereo not drawn) | -0.386%
36 | COc1ccc(C(=O)NCc2ccncc2)cc1OC | 3.65%
37 | O=C1CC(N2CCN(c3ncccn3)CC2)C(=O)N1c1ccc(F)cc1 (stereo not drawn) | -4.82%
38 | COc1ccc(CNC(=O)c2csc3c2CCCCC3)cc1 | 3.54%
39 | Cc1ccc(N(CC(=O)Nc2ccccc2C(=O)N2CCOCC2)S(C)(=O)=O)cc1 | -2.65%
40 | CCC(Oc1ccccc1)C(=O)Nc1cccnc1 (stereo not drawn) | 2.39%
41 | COc1ccc(CNC(=O)c2ccc(-c3nc(CS(=O)(=O)c4ccc(C)cc4)c(C)o3)cc2)cc1 | -2.74%
42 | CCn1ccc(C(=O)Nc2ccc(S(=O)(=O)Nc3ccccc3OC)cc2)n1 | 4.44%
43 | COC(=O)c1ccc(CSc2nc(O)c3cnn(-c4ccc(C)c(C)c4)c3n2)o1 | -3.35%
44 | O=C1c2cccnc2C(=O)N1Cc1ccc(S(=O)(=O)Nc2cccnc2)s1 | -2.56%
45 | COc1ccc(C/N=C/C2=C(O)CCCC2)cc1 | 3.05%
46 | COc1cc(Br)c(C2C3=C(O)CCCC3=NC(C)=C2C(=O)N2CCOCC2)cc1OC (stereo not drawn) | 1.86%
47 | CCc1ccc(OCc2cccc(C(=O)O)c2)cc1 | -3.13%
48 | C=CCNC(=O)C1=CC(c2ccc(OC)cc2)=NS(=O)(=O)N1C | 0.655%
49 | N#Cc1ccccc1NC(=O)COc1ccc(Cl)cc1Cl | 0.757%
50 | CN(C)CCN(Cc1ccccc1)Cc1ccccc1Cl | 3.19%
51 | COc1ccc(C(=O)CCC(=O)Nc2ccc(C)cc2)cc1 | 0.291%
52 | COC(=O)c1ccc(COc2ccc3c(=O)c(Oc4ccccc4Cl)coc3c2)cc1 | 0.565%

Row | SMILES | % Inhibition @ 10 uM
53 | CCN1c2ccccc2N(C)C1(C)c1ccccc1 (stereo not drawn) | -0.864%
54 | O=C(Nc1ccc(N2CCN(Cc3ccccc3)CC2)cc1)c1cncc(Br)c1 | -3.45%
55 | Cc1cc(C)c(C)c(S(=O)(=O)N2CCC(N(C)CCC(C)C)CC2)c1C | -3.12%
56 | COCCNC(=O)CCCOc1ccc(Cl)cc1Cl | -0.999%
57 | CN(Cc1cccc(Oc2ccccc2)c1)Cc1cccc2ccccc12 | 1.26%
58 | O=C1C2C(c3ccccc3)C=CC(c3ccccc3)C2C(=O)N1CCCO (stereo not drawn) | 6.82%
59 | N#Cc1ccc(-c2ccc(OCC(=O)NCc3ccccc3)cc2)cc1 | 4.44%
60 | CCCNC(=O)CSCc1nc(-c2ccc(Cl)cc2)oc1C | -1.05%
61 | NC(=O)c1c(NC(=O)c2cccc(Br)c2)sc2c1CCCC2 | 5.12%
62 | COC(=O)C1=C(C)N=C(C)/C(=C(/O)OC)C1c1ccccc1Cl (stereo not drawn) | 2.45%
63 | CC1=C(C(=O)Nc2ccccc2)C2(CCCCC2)C(C#N)=C(SCc2ccccc2)N1 | 4.15%
64 | CCCC(=O)Nc1cccc(NC(=O)c2ccccc2Br)c1 | -4.14%
65 | CSc1ccc(CN2CCN(Cc3cccc(C)c3)CC2)cc1 | -4.67%
66 | CCCOc1ccc(C(=O)N2CCCCC2)cc1OC | 3.89%
67 | N#CC1=C(N)N(c2ccc(Br)cn2)C2=C(C(=O)CCC2)C1c1ccsc1 (stereo not drawn) | -4.67%
68 | CCOC(=O)c1cc(C)n(CCc2ccc(OCC)c(OCC)c2)c1C | 4.82%
69 | COc1cc(C(=O)NCCC2=CCCCC2)cc(OC)c1OC | -0.473%
70 | Nc1c(C(=O)Nc2c(Cl)cccc2Cl)sc2nc(-c3cccnc3)ccc12 | 5.25%
71 | CC1(C)CC(NCc2ccccc2)CCO1 (stereo not drawn) | -5.07%
72 | COc1cc(CNC23CC4CC(C)(CC(C)(C4)C2)C3)cc(Br)c1OCC(N)=O | -2.09%
73 | N#CC1=C(N)Oc2cc(O)c(Cl)cc2C1c1ccc(F)cc1 (stereo not drawn) | -6.78%
74 | O=C(NC1CCCC1)C1CCN(S(=O)(=O)c2ccc(-n3cnnn3)cc2)CC1 | -1.07%
75 | CN(CCc1ccccn1)Cc1ccsc1 | 5.35%
76 | COc1cccc(OCCCCNCC2CCCO2)c1 (stereo not drawn) | 0.565%
77 | Cc1cc(C)n(-c2ccc(C(=O)Nc3ccccc3)cc2)n1 | -5.06%
78 | CCOc1ccccc1C(=O)N1CCN(c2ccccc2OC)CC1 | 22.6%

Row | SMILES | % Inhibition @ 10 uM
79 | CC(=O)/C(=C/Nc1ccc(F)cc1)C(=O)Nc1ccccc1 | -0.864%
80 | COc1cccc(NC(=O)c2ccccc2C)c1 | 1.91%
81 | COc1ccc(C(=O)C2=C(O)C(=O)N(C)C2c2ccc(OC)cc2OC)cc1 (stereo not drawn) | 8.07%
82 | O=C1NC(=O)C(C(CC(=O)c2ccccc2)c2ccccc2)C(=O)N1 (stereo not drawn) | 1.24%
83 | Brc1ccc(OCCCCCN2CCCCC2)cc1 | -1.41%
84 | CN1C(=O)N(C)c2cccc3cccc1c23 | -0.0369%
85 | CCN(CC)CCN(C(=O)c1ccco1)c1nc2c(F)cc(F)cc2s1 | -3.22%
86 | CSc1ccc(CN2CCN(C(C)=O)CC2)cc1 | -9.4%
87 | Nc1c(-c2nc(-c3cccnc3)no2)nnn1-c1ccccc1F | 3.73%
88 | COc1ccc(Cn2c(C(=O)O)c(CNC3CCCCC3)c3ccc(OC)cc32)cc1 | 3.12%
89 | CCN(CC)CCCNC(=O)C1CCN(C(=O)c2oc3cc4sc(N(C)C)nc4cc3c2C)CC1 | -1.37%
90 | CC1CC(C)CN(S(=O)(=O)N2CCCC(C(=O)NC3CC3)C2)C1 (stereo not drawn) | 2.18%
91 | CC1=C(C(=O)Nc2ccc(C)cc2)C(c2cccs2)NC(S)=N1 (stereo not drawn) | 0.565%
92 | CC(C)CC(C)(NC(=O)OCc1ccccc1)C(=O)NCC#N (stereo not drawn) | 0.079%
93 | O=C(O)C1(c2ccc(O)cc2)CCCC1 | -3.27%
94 | CS(=O)(=O)N(CC(=O)NC1CC2CCC1C2)c1cc(C(F)(F)F)ccc1Cl (stereo not drawn) | 6.5%
95 | COc1ccc(-n2c(SCC(=O)N3CCCC3)nc3nnc(C)c-3c2N)cc1 | -0.458%
96 | COc1ccc(C2C(C#N)=C(N)Oc3c2sc2ccccc32)c2ccccc12 (stereo not drawn) | 4.55%
97 | COc1cc(C2C(C#N)=C(N)OC(C)=C2C(=O)OC(C)C)cc(OC)c1OC (stereo not drawn) | -0.597%
98 | O=C(NCc1ccc(F)cc1)c1ccc2c(c1)nc(S)n1c3ccccc3nc21 | 2.89%
99 | O=C(CSc1nc2ccccc2o1)Nc1ccc(Cl)cc1Cl | 6.79%
100 | Cc1cccc(C)c1OCC(=O)Nc1ccc(S(=O)(=O)N2CCOCC2)cc1 | 0.316%
101 | Cc1nc2c(c(C)c1CCC(=O)NCCc1c[nH]cn1)c(=O)n(C)c(=O)n2C | 1.91%
102 | O=C(O)c1cc(-c2ccc3c(c2)OCO3)nc2ccc(Br)cc12 | -5.7%
